The full ranking holds about 33,000 sequences; the median of “E-score (-0.5 to 0.5)” is about -0.011, and the highest 2% start at about 0.28. The list shows a part of the results.
What follows are sequences tested against T1, Gcr1 (UniProt P07261) (assay: PBM E-score (8-mer binding enrichment) (E-score (-0.5 to 0.5)); higher = stronger / more preferred TF binding; most listed sequences are background and not binding sites). Conditions: protein concentration: 100 nM; construct: GST-full length.
T1 sequence: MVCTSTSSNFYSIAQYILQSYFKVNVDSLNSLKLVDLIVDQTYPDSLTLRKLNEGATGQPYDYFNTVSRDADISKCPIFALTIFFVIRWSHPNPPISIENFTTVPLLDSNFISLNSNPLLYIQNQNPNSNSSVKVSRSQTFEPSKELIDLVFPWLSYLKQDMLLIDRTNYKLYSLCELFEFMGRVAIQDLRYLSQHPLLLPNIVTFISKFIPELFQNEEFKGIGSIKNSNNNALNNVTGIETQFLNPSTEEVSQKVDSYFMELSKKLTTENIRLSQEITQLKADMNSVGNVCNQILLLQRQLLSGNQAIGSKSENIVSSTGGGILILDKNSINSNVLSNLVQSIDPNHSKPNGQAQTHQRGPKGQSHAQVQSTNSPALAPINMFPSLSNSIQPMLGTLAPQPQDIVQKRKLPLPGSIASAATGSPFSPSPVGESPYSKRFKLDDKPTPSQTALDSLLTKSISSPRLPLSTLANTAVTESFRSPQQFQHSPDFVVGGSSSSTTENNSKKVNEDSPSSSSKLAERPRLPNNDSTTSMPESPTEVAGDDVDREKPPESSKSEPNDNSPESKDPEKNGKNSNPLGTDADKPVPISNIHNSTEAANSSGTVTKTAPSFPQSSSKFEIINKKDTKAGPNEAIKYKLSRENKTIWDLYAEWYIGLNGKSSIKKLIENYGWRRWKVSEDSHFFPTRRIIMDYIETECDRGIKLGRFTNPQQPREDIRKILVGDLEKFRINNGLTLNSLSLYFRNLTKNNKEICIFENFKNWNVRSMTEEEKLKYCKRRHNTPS
How it was run: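 Universal all-10-mer Agilent arrays, double-stranded by primer extension on fresh or once-stripped slides, were probed with about 100-200 nM GST-tagged yeast transcription factors made by PURExpress. Fluorescent anti-GST detected bound protein, and masliner normalised the scans. E-scores from the Universal PBM Analysis Suite were given to each ungapped eight-base word pooled with its reverse complement.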

Sequence	PBM E-score
GGAGCAGA	-0.0656
ACGTGCCG	-0.0089
CAATAGAG	0.0491
CATACCTA	0.0799
AGCACGGG	-0.0631
AGATAGGC	-0.0803
TGGAGCCA	0.205
CCTCGTCG	-0.104
CAGGGGTC	0.0737
CGAGTCCG	-0.154
AAGACTGG	0.0254
CGACAGAG	-0.235
TACTAAGA	0.216
CTGGAAAA	-0.00671
ACCACAGC	-0.17
GGGTCCAC	-0.00435
AACTCGGC	0.0457
ACTGCAGA	-0.219
CTGCGGAC	0.00885
CTAGTTAA	0.119
AGAGCTCG	-0.195
GTCTCGGA	-0.0785
AGGCTTGC	-0.246
ATCGGTCC	-0.119
CCTGATAG	-0.233

Sequence	PBM E-score
ACACTTCA	-0.17
CCAGCATA	-0.0136
AGTCAAAA	-0.0258
CTTCAGGA	0.268
ATGATTCC	0.103
GAGTCGAA	-0.107
TCCTAGGA	0.228
ACTTTACC	-0.127
TGGGATAA	-0.0747
TATGCACA	-0.0979
GGCGCGTA	0.279
GATATTCC	0.0186
CGCATATA	-0.00312
CCCCCCTA	-0.13
CATTGAAC	0.0331
ACCTCAAG	-0.121
TAAAGTAA	-0.0967
AATGACAT	-0.0777
AGCGTCAC	-0.078
CTTCATGC	-0.211
GTTCTATA	0.0625
AGATCAGG	-0.0936
CTTGACCC	-0.141
AAGTGACG	-0.0426
GAAAGTAA	-0.0143

Sequence	PBM E-score
ACCGCCAG	-0.0205
CGCTAAAA	0.186
GTGCGCAC	0.0714
CCCATAGA	0.0813
AAGAGCAA	-0.112
ACATCGGT	-0.0758
GTAAATTA	0.0604
CAGGCCGC	0.139
ACCTTCAG	-0.0589
ACAGACTA	-0.106
ACCAGAAG	0.262
TGGTTACA	0.0493
ATACCTTC	0.00478
CACACGAA	0.0208
CTTCTTTA	0.108
AAACCCGC	-0.114
ATGGACTA	-0.178
CGTATGAA	0.196
ATGCAATC	-0.0826
ATTCCAAT	0.299
AAGGCGCG	0.094
ATGCCGAG	-0.0514
CCGGCTCA	0.0479
CTCGATTC	-0.0227
GCAAGTAA	0.0429

Sequence	PBM E-score
ATCTGTCA	-0.0824
AACCGAAT	0.0679
CGGGTGGA	-0.0523
TCGGTTAA	0.01
AAATATCC	-0.0141
ACGCCGAC	0.0534
CTGCGAGC	-0.0142
ATGGCTTC	0.3
ACTGAGAC	-0.074
ATTACGCC	0.0413
ACGTGGGC	-0.121
GCAGGCTA	-0.321
CTGCCGGA	0.0835
CACCTTGG	-0.138
AAATTGGT	0.226
ATCTTCAG	0.133
GTGTGGCA	-0.134
ATTTCCGG	0.158
CACAGGTA	0.0365
CTACCTAC	0.0735
GTGGAACA	0.0401
CTGCCGGC	0.0388
AGAGGAGA	0.0687
CAACGAAC	-0.0633
AGAAATTA	0.0854

Sequence	PBM E-score
CAAGCGGG	-0.0978
AACTACTT	0.0473
GGGGTCAC	-0.0641
CAATAACC	-0.016
ATGCCGGA	0.215
TAAGGGTA	-0.223
GGCCGGTA	-0.0895
TCTCCCCA	0.111
TACCCACA	0.00706
GAAACAGA	0.157
CCATATCG	0.05
ACTAAGCC	-0.0696
TAGATTGA	-0.00461
ACCCTTCA	-0.0713
CCTTATAG	0.152
ACTAATAG	0.24
GTACTGTA	-0.125
ATGGCGAC	-0.135
TCGGTCCA	-0.191
AAACTGAC	-0.0167
GATTTTCC	-0.0907
CTCTTCAA	0.00436
ACGAACTA	-0.0557
CTACGGTA	-0.0495
CCCGTTAC	-0.0381

Sequence	PBM E-score
TCGTCAAA	0.234
AAACACAG	-0.0882
AGCGAAGA	-0.188
AAGCTCCG	0.00534
AAACTGCT	-0.128
GAAGAAGA	0.183
CTGCTGTA	-0.0386
GAGATGTA	-0.064
CCTGCTTA	0.00991
CGGGGTGC	0.226
AAACTGTC	-0.167
CTTGTTAA	0.114
AACTGCCT	-0.0496
CGTACGAA	-0.119
ATCCCCTC	0.156
ATACAGAT	0.106
AAGTTACC	0.147
CCGGCCCA	-0.128
CTACGAAC	-0.107
CCCGATAC	0.101
GTGCCAAA	0.113
AAATATCA	0.11
AAGGGTTG	-0.087
CTCGCATA	0.0987
ACTAGTCA	-0.238

Sequence	PBM E-score
GAAACGTC	-0.159
CTATTAGA	-0.0419
CCAATAGG	0.149
ATGGTCTA	-0.0848
TCTGAACA	0.0984
AACGGACG	0.15
CGCGGCGA	-0.0356
AGCCGGGA	0.125
ATGTCAGC	-0.0842
ACGGTTCT	-0.00189
ATGTTCTC	-0.285
CTACTTTC	0.263
GTTAATTA	0.0274
CTTTAACA	0.103
AGAGTGAT	-0.112
CGGCGAAC	-0.078
TGATGCCA	-0.0459
CGGTTGTA	-0.121
ATTCAAAA	0.123
AAAATAAA	0.069
GTGTGCGA	-0.112
CGGTCGAC	-0.0972
GTTGAGGA	0.00766
AGTTATGA	0.0673
ATCGAGTA	0.0934

Sequence	PBM E-score
CTTTGTGC	-0.0221
TCCACTCA	0.189
CCGCATTA	-0.073
ATACCCTC	-0.152
AATGCAGC	-0.167
GGGGCATA	-0.0439
ACCAAAAG	0.033
CCGGATAG	-0.0981
GACTCTAA	0.0472
AGTATTCA	-0.062
TCATCCCA	-0.0573
CCAGTAAA	0.189
TAATTTCA	0.179
CCTGGGCC	-0.105
AGGCTGCG	0.138
CGCGGTAC	-0.0822
TACATCCA	0.0312
TCATAAGA	-0.105
ACCGAGTG	0.0115
ACTGGCGG	0.0575
GTAAGTCA	-0.0235
CTAGGTGC	0.136
ACAGAGAA	-0.134
CGGCCGAC	-0.197
TATTGAGA	-0.00228

Sequence	PBM E-score
ACCGGCGG	-0.00673
CCTTTAAG	-0.0224
CGACCGGA	0.0225
GTGGAAGA	0.172
GCATCAAC	0.15
AAAATTTA	0.124
CCTGTAAG	0.0417
ACTTCCCA	0.0658
ACGCCCGA	-0.131
CGAAAAAG	0.169
ACCAGGGA	-0.175
CCGGGGAG	0.0389
ACTAGAAT	0.257
AACTATGT	0.00327
AATCAAGT	0.0987
ACACGACG	0.267
ATTTGTCA	0.0547
ATGTAAGA	-0.0496
ACTTCCAA	0.303
ATGCACAT	-0.0442
CCGTAACA	-0.0541
CGGCTGGC	-0.174
AGTACAGG	0.108
GCGAAAGC	-0.198
ATAATGTC	-0.0336

Sequence	PBM E-score
AGCATTTG	-0.11
AAAGAAGG	0.0997
AAGGGCTC	-0.24
AATTGTTG	-0.00613
CACTCATA	0.0527
CGATGCCA	0.156
ACAGATTG	-0.226
GATAAAGA	0.011
CAAACCGC	-0.274
ACGCGCAA	0.0925
GTGACTCA	-0.118
GCAGTCAC	-0.224
ACCACCTG	0.0943
AGAATTGG	0.0667
CCGGAAAA	0.127
CGATATAA	0.044
CCATCCGG	-0.0299
ACCAATGC	-0.254
ACCCTTCG	0.198
ACTTCAAA	0.00813
CAAAGTAA	0.187
AATTTGGA	0.263
ACTTTCGG	0.031
AACGATTC	0.0439
CAAGTCGG	-0.16

Sequence	PBM E-score
CTACACAG	0.0109
GTAGGCAC	0.00518
CCGACGAA	0.0829
CAGTAAGA	-0.0297
ACCGTGGA	0.00734
ACTCACGG	-0.0752
AGTGACCG	-0.129
GCCTAGGC	-0.0945
ACGTCTAG	-0.00074
CCTGGCTC	0.00517
GCCTGACC	-0.241
AGGTGAGC	-0.131
ACCCCCTG	-0.183
AGTGGTGC	0.305
ACCACGCG	0.0135
ATAGTGGG	0.308
CGTCATTA	0.0426
CGTTTATC	-0.12
ATCATCCC	-0.202
AACCAACA	0.0425
ACTAAACA	0.212
ATGACGAC	0.0132
GTCAACCA	-0.238
CGTGGCAG	0.0503
GTTAGGGA	0.0237

Sequence	PBM E-score
CGCGTGGA	-0.128
ATAGGCCG	0.00788
CACAGGTC	-0.106
GTACTTAA	-0.0145
ATACAAAC	-0.00317
AACCGCGT	-0.0468
CTAGGAGA	-0.062
CACGTTCG	-0.185
TGACTCCA	0.0388
TTAATAAA	0.118
CATGAACC	-0.133
CACGTAGC	0.0605
CCCCTAAG	-0.0012
GAATTGGA	-0.0813
CGTTGCCC	-0.096
CCGTCAGG	-0.0623
CCGATACG	0.0148
ACTCCTGG	-0.00939
AAGACTTC	-0.0355
GACCATGC	-0.134
GTAATGGA	0.0927
GAGACCGA	-0.185
TCCAAAAA	0.253
CAACGTCA	-0.0477
AACGAACA	-0.0532

Sequence	PBM E-score
GGCGCCGA	0.286
AGCCTGCC	-0.173
ATGAAATA	0.0438
GGGTAGAA	0.0149
GGGAGTAC	-0.0905
ATCCATAC	0.139
ACCCAACG	-0.0521
AATCGCTA	-0.116
CCTAAAGC	-0.0253
TGAACTCA	-0.00543
GCCCTGAA	-0.132
AAGATTAG	0.0786
AAACTCCC	-0.144
ATATGGAC	-0.0174
CCCATTCC	0.209
GCAGGCCC	-0.133
CTTCAACC	0.0357
ACGATGCT	0.271
CCTAACCC	-0.176
GTCAGGAC	0.00402
AACTAGAA	0.197
GCCTTAGC	-0.156
GTGGTCTA	-0.129
ATTTTCGA	-0.0355
GATGTCCC	-0.0855

Sequence	PBM E-score
GCGTTGAA	-0.163
CCGCGCCA	-0.0281
CAGTTGAC	-0.1
AATAGAAC	-0.107
CTAGTAGA	0.151
CTTGGGAA	0.0288
CACGGCCC	-0.132
ACACCGTC	-0.0804
AGCGCCCG	0.272
ATTGAGCG	0.00193
CGGACTGC	0.0266
AATGCATG	-0.124
ATTCGTTA	0.0715
AATCTTGA	0.1
ATTTTCCG	0.0628
CGTAAATA	0.123
ACTTTCTC	0.0431
GTCGATCA	-0.191
GGTTTCAA	0.0956

Reference: the supplement of paper PMC3334620
